Results from PubChem BioAssay AID938 (National Center for Advancing Translational Sciences (NCATS), 2007).
“And” between values parts separate entries of the source, which are not always exact repeats. Equal values may be shown once. About 1,800 (2.5%) of roughly 73,000 compounds were called active. Inconclusive means that the source gave no clear call. Such entries were picked first, then a sample of the others. The call rests on the fitted dose curve; in most records, active means well fitted activation curve with a large enough effect; inconclusive means small, poorly fitted or top-dose-only effect; inactive means no such curve, though single readings can be large or run the other way. No potency is given beside an inconclusive call; the fits are too rough.

Experiment: qHTS Assay for Agonists of the Thyroid Stimulating Hormone Receptor: Activators of Intracellular cAMP Concentrations in Parental HEK 293; further: nearly all actives have a fitted effect of over 55% in size; on activation: % of control where 0% means no effect
Conditions: parental HEK293 CNG cAMP sensor, membrane potential fluorescence; activation: at 57.1 µM (top of the series) unless noted
Source text: NIH Chemical Genomics Center [NCGC]
NIH Molecular Libraries Screening Centers Network [MLSCN]
PI Name: Dr. Marvin Gershengorn
This cell based assay utilized a cyclic nucleotide gated ion channel (CNG) as a biosensor for cAMP induction. HEK 293 cells stably expressing the modified CNG were purchased from BD biosciences (http://www.atto.com/products/actone/features_benefits.shtml) . Stimulation of cAMP production causes the CNG to open and subsequent membrane depolarization to occur. A fluorescent membrane potential dye (BD biosciences) was utilized to detect cAMP stimulation in cells.
The cells were maintained in DMEM medium (Invitrogen) containing 10 % FBS (Hyclone), 100 units/ml Penicillin, 100 ug/ml Streptomycin (Invitrogen), and 250 ug/ml Geneticin (Invitrogen) and 1 ug/ml Puromycin (Invitrogen) at 37C in 5% CO2. This assay was used as a counterscreen to "qHTS Assay for Agonists of the Thyroid Stimulating Hormone Receptor", to control for compounds signaling through endogenous receptors and other targets of HEK 293 cells.
NCGC Assay Protocol Summary:
High Throughput Screening. Freshly passaged cells were dispensed into 1536-well assay plates at 4 ul/well in DMEM containing phenol red (Invitrogen), 10% FCS (Hyclone), and 100 units/ml Penicillin, 100 ug/ml Streptomycin (Invitrogen) and incubated at 37 C with 5% CO2 for 20 to 36 hrs before the robotic screening. The screen was initiated by addition of 4 ul/well membrane potential dye containing 100 uM RO 20-1724 (Sigma Aldrich), followed by 60 min incubation at room temperature to allow for dye equilibration across the cell membrane. 23 nl/well compound or control was then added to the assay plates, which were incubated for additional 30 min before reading a Envision fluorescence plate reader (Perkin Elmer) in bottom-read mode for fluorescence intensity (emission at 590 nm).
Keywords: cAMP, CNG Ion Channel, quantitative high throughput screening, qHTS, HTS, probe identification, CNG, cAMP, cyclic nucleotide gated ion channel PubChem
Potency means the concentration at half of the fitted maximal effect; tags describe the fitted curve by direction and shape.

| SMILES | Potency | activation |
| --- | --- | --- |
| COc1cc(CN2CCN(C(=O)CC(C)C)CC2)cc(OC)c1OC | inconclusive [activator, partial curve] | – |
| CC(C)N1C(=O)C2C(C(=O)NC3CCCCC3)C3C=CC2(O3)C1C(=O)NC1CCCCC1 (stereo not drawn) | inconclusive [activator, partial curve] | – |
| COC(=O)c1ccc(C(NC(=O)OCc2ccccc2)/C(C)=C/[C@@H](C)C(=O)NCc2cc(F)cc(F)c2)cc1 (stereo partly drawn) | inconclusive [activator, partial curve] | – |
| CCOC(=O)C1CCCN(c2ncnc3c2oc2ccccc23)C1 (stereo not drawn) | inconclusive [activator, partial curve] | – |
| COc1ccc(C(=O)N2CCC3(CC2)CCN(c2ccncc2)CC3)cc1 | inactive | – |
| O=C(c1ccco1)N1CCN=C1SCc1cccc(F)c1 | inconclusive [activator, partial curve] | – |
| O=C(CC1N=C2c3ccccc3N=C(SCc3ccc(F)cc3)N2C1=O)NCc1ccco1 (stereo not drawn) | inconclusive [activator, partial curve] | – |
| O=C(Nc1ccc(O)cc1C(=O)O)c1ccc2c(c1)C(=O)N(Cc1ccco1)C2=O | inconclusive [activator, single point] | – |
| COc1cccc(NC(=O)N(Cc2ccco2)C(C)c2cccs2)c1 (stereo not drawn) | inconclusive [activator, single point] | – |
| O=C(Nc1nn[nH]n1)c1nc(-c2ccccc2)cc(=O)[nH]1 | – | inactive: -7.57% [at 11.4 µM] |
| COc1ccc(CNC(=O)C(OC(C)=O)c2ccccn2)cc1 (stereo not drawn) | active: 7.94 µM | – |
| Cc1nnc(C)c2c(C)n(Cc3ccc4c(c3)OCO4)c(C)c12 | inconclusive [activator, single point] | – |
| O=C(/C=C/Nc1ccc(F)c(Cl)c1)c1ccco1 | inactive | – |
| COc1ccc(CNc2ncnc3ccc(-c4ccoc4)cc23)c(OC)c1 | inconclusive [activator, partial curve] | – |
| CCN(CC)S(=O)(=O)c1cccc(-c2nnc(SCC(=O)NC)n2CCc2ccccc2)c1 | inconclusive [activator, full curve, poor fit] | – |
| O=C(CN1CCOc2ccccc21)NCc1ccc(Cl)cc1 | inconclusive [activator, full curve] | – |
| CCCCOC(=O)CSc1nc2c(cc1C#N)C(=O)CC(C)(C)C2 | active: 20 µM | – |
| Cc1onc(-c2c(F)cccc2Cl)c1C(=O)OCN1C(=O)c2ccccc2C1=O | inconclusive [activator, partial curve] | – |
| CC(C)NC(=O)N1CC2(CCN(C(=O)c3ccco3)CC2)C1 | inconclusive [activator, single point] | – |
| O=C(Nc1ccc([N+](=O)[O-])cc1Cl)c1cc(Cl)ccc1O | active: 1 µM and active: 501 nM | – |
| CCC1CCCCN1C(=O)Cn1c(C(=O)OC)cc2sc(Cl)cc21 (stereo not drawn) | active: 15.8 µM | – |
| COc1cc2c(cc1OC)-c1nnc(-c3cccs3)n1C(C)(C)C2 | inconclusive [activator, full curve] | – |
| Cc1noc(C)c1CSc1nnc2n(-c3ccccc3)c(=O)c3ccccc3n12 | inactive | – |
| O=S(=O)(O)c1cc(S(=O)(=O)O)c2c(N=Nc3cccc4ccccc34)c(O)ccc2c1 | – | inactive: 7.52% [at 11.4 µM] |
| O=C1c2ccccc2NC(c2ccc3c(c2)OCCO3)N1c1ccc2c(c1)OCCO2 (stereo not drawn) | inconclusive [activator, partial curve] | – |

| SMILES | Potency | activation |
| --- | --- | --- |
| CCOC(=O)C(/C(N)=N/C(=O)Nc1ccccc1)=C(\C)O | inactive | – |
| CCOC(=O)Nc1ccc(S(=O)(=O)Nc2cc(C)on2)cc1 | inactive | – |
| CCOc1ccc(Cc2nccc3cc(OCC)c(OCC)cc23)cc1OCC | inconclusive [activator, partial curve] | – |
| Cn1cccc1C(=O)N1CCC2(CCCN(Cc3ccccc3)C2)CC1 | inconclusive [activator, partial curve] | – |
| O=C(c1cccs1)N1CCc2ccccc21 | inconclusive [activator, single point] | – |
| O=c1[nH]ncc2ccccc12 | inactive | – |
| COC(=O)C1=C(C)OC(N)=C(C#N)C1c1ccccc1 (stereo not drawn) | inactive | – |
| CCNCCNC(=O)c1c(O)c2cccc3c2n(c1=O)CCC3 | inconclusive [activator, partial curve] | – |
| COC(=O)C1C(c2ccccc2)C(C(=O)N2CCN(C)CC2)C1c1ccccc1 (stereo not drawn) | inconclusive [activator, partial curve] | – |
| Cc1cccc(OCC(=O)Nc2ccc(N3CCCC3)cc2)c1C | – | inactive: -25% [at 11.4 µM] |
| COC(=O)CSc1nc(C2CC2)cc(C(F)(F)F)c1C#N | inconclusive [activator, partial curve] | – |
| CCn1c(SCC(=O)NCc2ccccc2)nc2ccccc2c1=O | inactive | – |
| CCN(CC)S(=O)(=O)c1ccc(NC(=O)COc2c(OC)cccc2OC)cc1 | inconclusive [activator, single point] | – |
| CC1=C(C(=O)N(C)Cc2ccccc2)C2(CCC(C)CC2)OC1=O (stereo not drawn) | active: 6.31 µM | – |
| O=C(Nc1nncs1)c1ccccc1Br | inconclusive [activator, single point] | – |
| Cc1ccc(-c2nnc3c4ccccc4c(C)nn23)cc1S(=O)(=O)N1CCN(C)CC1 | inconclusive [activator, full curve] | – |
| COc1cccc(Nc2ncc3ncc(=O)n(Cc4cccs4)c3n2)c1 | active: 15.8 µM | – |
| O=C(Nc1ccc2c3c(cccc13)CC2)c1ccco1 | inconclusive [activator, partial curve] | – |
| CCOc1cc(OCC)cc(C(=O)Nc2cccnc2)c1 | inconclusive [activator, single point] | – |
| Cc1ccc(S(=O)(=O)Cc2ccc(C(=O)N3CCN(c4ccccn4)CC3)o2)cc1 | inconclusive [activator, single point] | – |
| CC1Oc2ccccc2N(CC(=O)Nc2ccc3c(c2)OCO3)C1=O (stereo not drawn) | inconclusive [activator, single point] | – |
| Cc1ccc(-c2noc(C3CCCN(C(=O)C4CCCCC4)C3)n2)o1 (stereo not drawn) | inconclusive [activator, partial curve, poor fit] | – |
| COc1ccccc1-c1cc(NCc2cccs2)ncn1 | active: 31.6 µM | – |
| COC(=O)c1cc(Cc2ccc(N)c(C(=O)OC)c2)ccc1N | inconclusive [activator, partial curve] | – |
| CC1=C(C(=O)Nc2ccccc2)C(c2ccc3c(c2)OCO3)C2=C(CCCC2=O)N1 (stereo not drawn) | active: 15.8 µM | – |

| SMILES | Potency | activation |
| --- | --- | --- |
| N[C@H](C(=O)O)c1ccc(C(=O)O)c(O)c1 | inactive | – |
| CCOc1ccc(C(=O)NCCn2cc(SCC(=O)Nc3cc(C)on3)c3ccccc32)cc1 | inactive | – |
| O=C1C2C3C=CC(C3)C2C(=O)N1CCCO (stereo not drawn) | inconclusive [activator, partial curve] | – |
| Cc1cccc(NC(=O)c2snc3c(=O)[nH]cnc23)c1 | inconclusive [activator, partial curve] | – |
| COc1ccc(-n2nnnc2SCC(=O)N2CCCC2)cc1OC | inconclusive [activator, single point] | – |
| CC1=C(C(=O)OCC(C)C)C(c2cccc(F)c2)N2C(=O)C(C)SC2=N1 (stereo not drawn) | inconclusive [activator, single point] | – |
| Cc1ccc(-c2nnn(CC(=O)N(Cc3cccs3)C(C(=O)NC3CCCC3)c3ccco3)n2)o1 (stereo not drawn) | active: 12.6 µM | – |
| Cc1cc(O)c(-c2n[nH]c3c2C(c2cccc(O)c2)N(Cc2cccnc2)C3=O)cc1Cl (stereo not drawn) | inactive | – |
| COc1cccc(NC(=O)Nc2cccs2)c1 | inactive | – |
| c1ccc(-n2nnnc2N2CCOCC2)cc1 | inactive | – |
| COc1cccc(C(=O)OCn2nnc3ccccc3c2=O)c1OC | inconclusive [activator, single point] | – |
| Cn1c(-c2cc(Br)ccc2O)n[nH]c1=S | inconclusive [activator, single point] | – |
| Cc1ccc(C2=[N+]([O-])C3(CCCCC/C3=N\O)N(O)C2(C)C)o1 (stereo not drawn) | inconclusive [activator, single point] | – |
| COc1cc(-c2nnc(COc3ccc4ccccc4c3)o2)cc(OC)c1OC | inconclusive [activator, single point] | – |
| O=C(c1ccncc1)N1CCC2(CC1)CN(c1ccccn1)C2 | active: 7.94 µM | – |
| CCCCNc1nc2ccccc2n1CC(=O)N1CCc2ccccc2C1 | active: 2 µM | – |
| COC(=O)NC(c1ccc(F)cc1)C(C(C)=O)C(=O)OC (stereo not drawn) | – | inactive: 7.77% [at 11.4 µM] |
| CO/N=C(\C)CCN1CCCCc2nc(C)c(C)cc21 | – | inactive: 0.727% [at 11.4 µM] |
| Cn1ncc(C#N)c1/N=C/N(Cc1ccccc1)Cc1ccccc1 | active: 15.8 µM | – |
| N#CC1=C(N)Oc2n[nH]c(-c3ccc(F)cc3)c2C1c1ccncc1 (stereo not drawn) | inactive | – |
| Cc1ccc(-n2nnc3c(=O)n(CC(=O)OCc4ccccc4)cnc32)cc1 | active: 25.1 µM | – |
| O=C(NC1CCCCC1)c1ccc(Br)o1 | inconclusive [activator, partial curve, poor fit] | – |
| COC(=O)C1=C2N(Cc3ccccc3)C(C)=C(C(=O)OC)C(c3ccccc3)N2C(=O)[C@](O)(C(=O)OC)C1 (stereo partly drawn) | inconclusive [activator, single point] | – |
